Test results reported in PubChem BioAssay AID485290 (National Center for Advancing Translational Sciences (NCATS), 2010).
Hit rate of the full screen: of about 350,000 compounds, about 990 (0.28%) were called active. Inconclusive results, whose numbers are uncertain, are shown with a selection of clear calls. The call rests on the fitted dose curve; in most records, active means well fitted inhibition curve with a large enough effect; inconclusive means small, poorly fitted or top-dose-only effect; inactive means no such curve, though single readings can be large or run the other way. Potencies beside an inconclusive call are fits to weak or partial responses and may not hold up.

target: Tyrosyl-DNA phosphodiesterase 1 (Homo sapiens) (UniProt Q9NUW8); assay: qHTS Assay for Inhibitors of Tyrosyl-DNA Phosphodiesterase (TDP1); settings: recombinant TDP1, AlphaScreen DNA substrate cleavage; activity change, negative = inhibition: at 130 µM (top of the series) unless noted; further: nearly all actives have a fitted effect of over 40% in size
Sequence of UniProt Q9NUW8 (Q9NUW8 whole entry, looked up): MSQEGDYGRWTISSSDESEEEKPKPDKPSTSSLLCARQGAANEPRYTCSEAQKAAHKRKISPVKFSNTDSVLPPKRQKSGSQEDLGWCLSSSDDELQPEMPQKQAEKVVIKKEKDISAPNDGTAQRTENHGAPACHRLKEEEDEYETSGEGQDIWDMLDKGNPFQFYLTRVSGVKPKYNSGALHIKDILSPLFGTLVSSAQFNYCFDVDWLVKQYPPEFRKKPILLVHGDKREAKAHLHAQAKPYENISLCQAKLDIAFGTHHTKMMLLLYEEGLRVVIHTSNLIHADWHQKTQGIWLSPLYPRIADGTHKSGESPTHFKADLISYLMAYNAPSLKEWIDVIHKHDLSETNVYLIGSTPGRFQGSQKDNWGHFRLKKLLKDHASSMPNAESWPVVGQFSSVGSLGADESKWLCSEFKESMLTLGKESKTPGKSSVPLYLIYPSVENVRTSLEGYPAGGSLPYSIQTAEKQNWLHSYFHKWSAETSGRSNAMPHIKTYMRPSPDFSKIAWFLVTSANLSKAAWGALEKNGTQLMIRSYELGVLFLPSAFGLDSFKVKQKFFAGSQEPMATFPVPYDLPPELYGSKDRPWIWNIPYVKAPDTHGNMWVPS
In short: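 Compounds were preincubated with Tdp1 (1 nM final) for 15 min at room temperature before substrate (15 nM final) started a 5 min reaction; beads (10 ug/ml final) were then added for 10 min before AlphaScreen detection.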
On the % scale 0 is the no-effect control and ±100 the full control effect; potency means the concentration at half of the fitted maximal effect; tags describe the fitted curve by direction and shape.

Row | Structure (SMILES) | Potency | activity change, negative = inhibition
1 | N#Cc1ccc(NC(=S)NC(=O)CCc2ccc(S(=O)(=O)N3CCOCC3)cc2)cc1 | inconclusive: 89.1 µM [inhibitor, single point] | 
2 | COC(=O)c1ccc2c(=O)n3c(nc2c1)SCC(c1ccccc1)=N3 | inconclusive: 31.6 µM [inhibitor, single point] | 
3 | COCCN(C(=O)c1cc2c(s1)CCC2)c1c(N)n(CC(C)C)c(=O)[nH]c1=O | inconclusive: 20 µM [inhibitor, full curve] | 
4 | Cc1ccccc1CSc1ccc(-c2cccs2)nn1 | inconclusive: 44.7 µM [inhibitor, single point] | 
5 | O=C(COC(=O)/C=C/c1ccc(Br)o1)Nc1ccccc1F | active: 15.8 µM | 
6 | Cc1ccc(C)c(S(=O)(=O)N(C)Cc2cccs2)c1 | active: 79.4 µM | 
7 | COc1ccccc1N1CCN(c2ncnc3c2c(-c2ccccc2)cn3-c2cccc(C)c2)CC1 |  | inactive: 2.6%
8 | CC1(C)CC2CC(C)(CN2C(=O)COC(=O)c2ccc(O)cc2O)C1 (stereo not drawn) | active: 7.94 µM | 
9 | COc1ccc(C2Nc3ccccc3C(=O)N2Cc2ccco2)cc1COc1c(C)cccc1C (stereo not drawn) |  | inactive: -0.0324%
10 | COC(=O)c1c(-c2cccs2)csc1NC(=O)c1ccc(C(C)C)cc1 | inconclusive: 3.98 µM [inhibitor, full curve] | 
11 | O=C(COC(=O)CCC(=O)c1cccs1)NCc1ccco1 | active: 22.4 µM | 
12 | O=c1[nH]c(-c2ccc(F)cc2)nc2c1sc(=S)n2-c1ccccc1 |  | inactive: -3.17%
13 | O=C(Nc1nnc(C23CC4CC(CC(C4)C2)C3)s1)c1ccc(N2C(=O)CCC2=O)cc1 | active: 44.7 µM | 
14 | COc1ccc(Cc2nnc(NC(=O)c3cccc(C)c3)s2)cc1 |  | inactive: 0%
15 | Cn1c(CC(=O)Nc2cccc(Cl)c2Cl)nnc1SCC(=O)NC1=NCCS1 | inconclusive: 15.8 µM [inhibitor, single point] | 
16 | Cc1ccc(C(=O)OCC(=O)Nc2ccc(S(N)(=O)=O)cc2)c(O)c1 |  | inactive: -1.37%
17 | O=C(c1ccc(Br)cc1)c1cc(-c2ccccn2)c(N2CCOCC2)s1 | inconclusive: 20 µM [inhibitor, partial curve] | 
18 | Cc1ccc(SCC(=O)NC(=O)NCc2ccco2)c(C)c1 | inconclusive: 15.8 µM [inhibitor, partial curve, poor fit] | 
19 | O=C(Nc1ccc(F)cc1F)c1cc(CN2CCOCC2)on1 |  | inactive: 1.95%
20 | Cc1nc(C)c(C(=O)Nc2ncc([N+](=O)[O-])s2)o1 | inconclusive: 50.1 µM [inhibitor, partial curve] | 
21 | COc1ccc(NC(=O)/C(C#N)=C/c2ccc(Br)o2)cc1 | inconclusive: 10 µM [inhibitor, partial curve] | 
22 | Cc1csc(SCC(=O)c2ccc(S(=O)(=O)N3CCOCC3)cc2)n1 |  | inactive: 6.15%
23 | CCc1ccc2oc(C(=O)NC3CCS(=O)(=O)C3)cc(=O)c2c1 (stereo not drawn) |  | inactive: 1.64%
24 | Cc1nc(-c2cccc(S(=O)(=O)N3CC(C)OC(C)C3)c2)cs1 (stereo not drawn) |  | inactive: 3.85%

Row | Structure (SMILES) | Potency | activity change, negative = inhibition
25 | O=C1OC(c2ccccc2)=N/C1=C\C=C\c1ccco1 | active: 44.7 µM | 
26 | O=C(NC(=S)NCc1ccccc1)c1cccc(Cl)c1 |  | inactive: 1.27%
27 | O=C(C1=NN(c2ccccc2)C2C(=O)N(c3cccc(Cl)c3)C(=O)C12)c1ccccc1 (stereo not drawn) | inconclusive: 3.55 µM [inhibitor, full curve] | 
28 | CC(=O)C(=Nc1ccc(Cl)cc1Cl)NNc1cccc(Cl)c1 |  | inactive: 9.8%
29 | Cc1cc(C)cc(NC(=S)NCCSc2ccc(Cl)cc2)c1 |  | inactive: -2.74%
30 | CC1(CC(=O)N/N=C/c2cc([N+](=O)[O-])c(O)cc2O)OCCO1 | inconclusive: 8.91 µM [inhibitor, full curve] | 
31 | O=C1CCCC(O)=C1N=Nc1cccc(C(=O)O)c1 | inconclusive: 3.55 µM [inhibitor, full curve] | 
32 | Cc1cc2c(c(=O)o1)[C@H](O)[C@H]1O[C@@H]1C2=O | inconclusive: 3.55 µM [inhibitor, partial curve] | 
33 | COc1ccc(NC(=O)Cn2c(=O)n(CCCC(=O)NCCc3ccc(C)cc3)c(=O)c3ccccc32)cc1Cl |  | inactive: 1.82%
34 | Cc1ccc(NC(=O)CN(C)C(=O)c2ccccc2Sc2ccccc2C#N)cc1 |  | inactive: -2.67%
35 | O=C(OCCCOC(=O)c1ccccc1O)c1ccccc1O | active: 17.8 µM | 
36 | O=C(OOC(=O)c1ccccc1)c1ccccc1 | inactive | 
37 | Cc1cccc(N2C(=O)CC(Sc3ncn[nH]3)C2=O)c1 (stereo not drawn) | inconclusive: 1 µM [inhibitor, full curve] | 
38 | Cc1cccc(N2CSC3=C(C#N)C(c4ccc(C)o4)CC(=O)N3C2)c1 (stereo not drawn) | inconclusive: 3.16 µM [inhibitor, full curve] | 
39 | CCOC(=O)Cc1csc(SCC(=O)Nc2sc3c(c2C(N)=O)CCC3)n1 | inconclusive: 12.6 µM [inhibitor, full curve] | 
40 | CC(=O)OCC(NC(=O)C(CCCCNC(=O)OCc1ccccc1)NC(=O)OC(C)(C)C)C1OC(n2ccc(=O)[nH]c2=O)C(OC(C)=O)C1OC(C)=O (stereo not drawn) | inconclusive: 3.98 µM [inhibitor, single point] | 
41 | COC(=O)CCC(=O)OC1(C)C(=O)C=C2C=C3CCCN3C=C2C1=O (stereo not drawn) | inconclusive: 25.1 µM [inhibitor, partial curve] | 
42 | Cc1ccc2c(c1)c1c(c(=O)n(-c3cccc(Cl)c3)c(=O)n1CC(=O)Nc1c(C)cccc1C)n2C |  | inactive: 8.82%
43 | O=C(CSc1ncnc2sc3c(c12)CCCC3)c1ccccc1 | inconclusive: 63.1 µM [inhibitor, partial curve] | 
44 | COc1ccccc1NC(=O)c1ccc(-c2ccccc2F)o1 | inconclusive: 35.5 µM [inhibitor, single point] | 
45 | CC1CCCN(CCCNC(=O)c2ccc3c(c2)N(Cc2ccccc2F)C(=O)c2ccccc2S3(=O)=O)C1 (stereo not drawn) | inactive | 
46 | COc1cccc(Cn2c(=O)n(CC3CCC(C(=O)NC(C)C)CC3)c(=O)c3sccc32)c1 (stereo not drawn) | inconclusive: 8.91 µM [inhibitor, single point] | 
47 | Nc1ccccc1-c1nc2ccccc2s1 | inconclusive: 25.1 µM [inhibitor, single point] | 
48 | CC(=O)c1ccc(N2CCN(C(=O)c3cc(-c4ccncc4)nc4ccc(Br)cc34)CC2)cc1 |  | inactive: 5.08%
